Data as given in publication PMC10726135.
This is one part of the list. At the low end of the ranking, values are background and their order means little. Measured with an extract: partners may take part in the binding.

Each sequence was assayed against T1, HNF4alpha2 (COS-7 nuclear extract) (UniProt P41235) (assay: protein-binding microarray). Settings: COS-7 nuclear extract on double-stranded Agilent 4x180k PBM; binding buffer, salt, pH and temperature not given; high values mean tight binding; double strand, one strand shown; sequences stand for … in …GCCTAGGGAGATTAGAGTATCGGTCGA.
T1 sequence: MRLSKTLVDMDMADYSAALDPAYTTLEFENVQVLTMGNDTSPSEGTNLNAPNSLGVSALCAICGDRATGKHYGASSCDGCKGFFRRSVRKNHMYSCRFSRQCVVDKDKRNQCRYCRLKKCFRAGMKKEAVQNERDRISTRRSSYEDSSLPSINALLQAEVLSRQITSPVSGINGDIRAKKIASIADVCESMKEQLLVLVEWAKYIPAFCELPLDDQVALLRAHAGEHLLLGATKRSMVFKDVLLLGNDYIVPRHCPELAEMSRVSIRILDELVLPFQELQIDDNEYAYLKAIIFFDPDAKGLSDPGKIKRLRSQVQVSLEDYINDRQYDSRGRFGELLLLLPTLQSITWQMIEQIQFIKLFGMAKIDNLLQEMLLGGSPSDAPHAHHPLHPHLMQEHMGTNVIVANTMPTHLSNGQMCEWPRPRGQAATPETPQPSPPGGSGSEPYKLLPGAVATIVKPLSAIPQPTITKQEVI

Sequence | binding signal (log2 normalized intensity)
TGAGGTGCAGGACAAAGTGTGCACTTTGCA | 2.07
TGAGGGAGGGCACAGGCAACAGAGGAGCAT | -1.17
AAAGAAGCTACTAGCAAATCTGCCCAACCT | -1.1
TGGAGCCAGATGCACACAGGATCAATAAAA | -1.11
TTACATGGATTAGTCCCTTTTCACGCTAAG | -0.735
ACTCTCACCTTGGGGGCTGCTGGGGGCACA | 1.08
TTTCCTTCTAGCTCCCCAATAGACATAACT | 2.54
TCCATAGTTCCGAGTTCCCTCGATTATTTC | -0.843
CTCTGCAGTAACTGTCATGGATGACCTCTT | 4.38
CAGCAAACAGGTCCTGCTGGTTTGCCATTT | 0.581
CAAACACAACATTGAAAGCGATCTTTGCAT | -0.369
CCGGACACAAAAGCTGCTGCCAAGCGTCAG | -1.1
AATACGACCTTTGGACAGGGTGACGTCATT | 6.27
TAAGTATAAAGTTAAGACCTACATTAAGAC | -1.16
TTCGGGTTTTCGCAGCAAGTTACACAAGTA | -0.724
GACACCAAACAGACCTCCCCCAACTTACTT | 3.5
GCTGTTTCCAAATATCTGACTGTAAATTTG | 0.229
TTACCTGAAATGAGACCAAAGTATTTAACC | 0.872
AATGGTGGGATAGGAGACATGAAGGACATA | -0.721
AGGCTCTTAGCAGAAGCCCTCCTGGACATT | 1.64
GAGCCCTCCCCTTGTCTGATAAGATTCAGA | 3.13
TCTTGGAATGTTGAACCTTTCTTTGTCTTT | 2.24
GGTGACAGTATCAAAGTCCCCAGATAAGAC | 3.19
TCACCACTTTTGCAATGTTTCCAAACCCCT | 2.72
TATGTGGCATTTCAAAGGAGGAGGCCTAGG | -1.03

Sequence | binding signal (log2 normalized intensity)
CCTTGGCCTGCTCCTTGGAAGTCGCCGTGA | -1.05
ATGCCTGATAAAGGGGGCAAAGGGCATGGG | 4.85
TGGGCCTGGCTGAGCCTGGGCCGCCAAACT | -1.13
AGCTGCTCTAAGAATGCAGAAACAAATACA | -1.08
AAGTCCAACAGGGTTAAAAGCAAACCAAAA | -1.14
GTAGACAATAGGGCAGAGGAAACAAACAGA | -1.15
TCATCTGGTGGCTTGAGTTGGAGAAGAGCA | 0.32
ATAGTGATAAGGATCTAAGAACTAACATGG | -1.15
GCAGTGGGACAAAGGTCACAGGAAAGGGAC | 4.13
GAACAGTCCTACAAATGATCAAAGGTTGGT | 2.98
TCTGCCATTGTCGTGGTTGTAGAAAGCAGC | 0.981
GATCATAATCCCTTATGACGGACAAAGGGC | 1.74
TTTTCTTGGACTTTGGTCATCCTTTACTTT | 6.04
CACCTGGTTCCTTGCAAGATAAGGGTCAGC | 2.3
ACCCTGGTCTTTGCCCTTTCCTAGACGTAA | 2.45
GAGAGGGTTAAAAACCAGAATGACAAGCTG | -1.21
AGGCAGGGGATGAGATCTGAAGATAAATGC | -1.07
AAGAAAGAGACCTTTACCCTGACCTGTCAA | 2.82
CCCTTTAGTGCCTGGATCTTGGAACAGGTC | 1.6
TGTGCTCCCGACTGCTCCACCAGCGCGTGC | -1.2
TTCTAAAAATAGCCTTACTTTAAAGCTGAT | -0.582
TTACAGATAAGCAGAAGGTCAGGTGAATCA | -1.07
CCAGGAGCCCCACGTTTATCTTGGAACCTC | 1.4
TACAGGGAGCTATTCTTTAACCAGAGTCTA | -0.896
CTGACAAGTATCTCGGTCAAACCTTTGACC | 5.77

Sequence | binding signal (log2 normalized intensity)
CCATCCCAGGTCCACAGTGCACATTCCAGA | 0.202
TCAGATTGTAGCCTCATTTCACCTTTGGTC | 5.58
TAGCCAGACCTGTTCCTCTGCCCCTCATCG | 1.7
GCTCCCGCCTGACCTGGCCCCTGAGGGTGC | 1.24
GCCTGCTCCTTGGAAGTCGCCGTGAGGTTA | -0.0732
AGATAATCCCCAGCCACGCTCCTCTTATCA | 0.929
TTACAAAGTATGTTCACAAGGAATTGGAAT | 1.55
TTGTAGTGTCATTGTTATTTACGGTGGGCA | 2.04
GAGGTTGAATTCCAAAGGTTATTTTCTTTA | 2.55
GGAGAGGCAAGTATGGTAAGGTCGACCTTT | 6.25
TTTCCCCCTATTTCCCTCTGTGCCCGAGCT | 3.95
TGACTTTCTTCCTATGGGATCAAAGTGCGA | 4.63
AGAGGACTTCCAAAGCCCCTTTCCACTCTA | 0.98
TGCTCATAATGCCAGGCAGGAAGGAGCCTG | -1.15
CACATCCAGATGAGAGCAGAGGCTGGGGCC | -1.12
TAACTATGGTCACGCGGCCAAAATGTTCAG | 0.22
TTTAGAGGATTTACTTATACAGCGTCTAAG | -1.19
AGAGTCATCACAATAGGGAAACAGCGAGAG | -1.13
CACCAGGGCCTCTGAGATAAGGGTTCAAAC | 1.59
CAAGACCTCTTTGCGGATAGATATGTTGAA | 1.67
AGAGACAACCAAGGTTGCAGAGTGTCCCAC | -0.964
TGCCCTCTGTCCCATGGTGTACAAGGAGTC | 1.46
TATCACCTGCCAGCTGTTATGAGTCTGTTG | 1.32
TAAGCACCCAGAGCCCCACCGTTGTGTAAT | 2.21
AGACACAGACTCAAGTGAGGAAGGAACTGG | -1.04

Sequence | binding signal (log2 normalized intensity)
CTCTCCCCACCCCCAAATCCCCTTCAAGTC | 5.43
ACACGTGGGACCATGAGTACCAGGTCAAAA | 1.37
CCTTCCAAAGTCCACCTCAACCTCCCCCTG | 5.29
CTTCAAACGGGAAGCGAGGCCTCATTGGCC | -1.15
TTCAACTGATAAGAAGGGGCCTAGCTTGTA | -1.2
CAGGGTGAAATTCAACAGAACTGTTTGAGG | 0.113
TGTAGAATTATCCAGATCAAGGATTTTTTC | -1.05
TCATTGATGAGTGACCTTTGACCTCAGAGA | 9.89
CCAGTGGGGGGAAGCTCTGTCACTTCTGGT | -1.08
AAGCATTGCTTGAGTCACTTGGTTTTCACA | -0.259
CCCTTGACAATTCCTATTCATTCCCTAAGA | -1.09
GAAGTGCTGACCTTTGGTCTAAACCTACTT | 5.08
GGTTCACTCTATGTTAGGCTGGAAAACTGG | 0.72
TAAAGGGCAGCAAGTATTCAAGAAAGGGGC | -1.05
ATCAGACACAGAGATAAGGAGGTAACCTTT | 3.48
TATGGGATGATCAGTAAGGAGAGGGGGCGG | -1.11
CTGCCAGGAGGGGACTTCAAAGGCTCCCCT | -1.12
GTTTGCTAATATCTGATGTTAAATCCACGA | -0.531
AAGCTGCAATGGCTTCACAATTCCTAGCAA | -1.08
GAGAGTTAGTTCTGCAAACACCCCTCCCCC | 5.44
TTAGATAGTAGCCCTTTGTATCTTTTAAGA | 1.62
ACACACACATTGCAGTATGCCCCCCCACCC | 6.13
ACTGTTCAGTTCCTATTTCAACATCCTCTC | 0.886
AACCAAGATTTACATCCTATCCTGGCTTCA | -0.86
TTCTGGTGATCAAACAAAAGGGACAAAGGT | 1.74

Sequence | binding signal (log2 normalized intensity)
TGGACATACCTCTAATCATAAAGCTGGGAA | 1.1
AATTGTGTCACTCCCCAGGAATGTGCTCCC | 2.26
GCAGTGAGTAACCTTGAGGAACTGAGTAAG | -0.307
CAGGAGAAGCAGAACAGGTATTTCAAGGTT | 0.104
CATCCTCAGGTAAAGATCAACCATCAAGAT | -1.04
TGGTATGCTTAAGTGGCTCACCCAAGTCAC | -1.15
TACTGACCAAATGGGAACATTCCTCAGGGA | -1.14
CAGTCTAAAGTCTGATCCCAATTTATCTTT | 1.35
GTGTTGGAGCATTAGTTGACCATTGTGTTA | 2.08
TTCAATGCTCCAGTAAAAGCTCTACCTGAC | -1.11
AGACAGCTGCATTTGTCCGGGTATGTTCTT | 1.39
GTCCCTGCTCCACGCAAACACAAAAGGATC | -1.2
ATGACCTTTGAGCAATAGGAAATGGGAGGG | 2.34
GGTCTAATTCCCAAGGGTATGTTTGTGATA | 1.94
TCAGAGCCTGGCTGGCCTGGCAAATCTCTA | -0.989
TTTTTAGTGCAAGCAAAATTCCTGGGTTGC | -0.67
GTGTGGGACTTGAGGTCTTATCTTTAGGCC | 1.03
GACTCTGCAGCCGAACCGGCACGGTTTCGT | -1.03
CCCTGCAGTCCTCTGCTTATCTGGCCTGCT | -0.935
CTCTTTGGTGCAAAGGTCAGGACAAGGCTC | 4.3
TCCACTGTGCAGTGGGCCTTTAGAAGTGTA | 0.627
GGAATCTTGCCCTGTCGCCCAGGCTGGAAT | 1.09
AACTGGAAAATCAAAGACTCAGATGAGTTT | -1.12
TATTCCAGGCACAAGAATGGTCATTCTCTG | -0.977
AATACTCCAGTCATTGTACAAACACATACC | 0.393

Sequence | binding signal (log2 normalized intensity)
GACCAAAAGATATTTGCTGCTGACATCTCA | -1.1
TCGTAGGCAGGGCCAGATAAAGCAGGTTGT | 0.444
TTGGACTTTGTACATTCCAAATACGATAAT | 5.36
TCCTGGTTGGCAAACAAAAAGCTCTGCCTA | -1.14
TTTGCTTTCTTGGAGGTTAACATTTGACAA | 1.47
AGGAAAACGGAGACAGAAACTGTTTCCAAT | -1.01
AGGCCAGCTCATAGGGATCAGATAAGAAGT | -0.997
GGCAAAACTGTCACAAGAAAGGCAGAAAAC | -1.19
AAAGATGGGGATATAATCATTCATGGGCCA | 1.11
GCAGAAGGCAACAGCTCTGGAGGATTTGGG | -1.05
AACGGAGACAGAAACTGTTTCCAATAGGTT | -0.896
GCTCAATCAAGGACTGGGCTGGAACACAAA | -1.13
TAAGCCTCTGACTGTTGCATCAAACAGCTT | -1.16
GACTCTAGATTGTTTGTTCTTGCTACCTAC | -0.856
ATGACACAGAGTGGAAAATAAATATTTGTT | -0.533
ACTAGACTGCCTCTTACAACGAGGTGCCAG | -1.1
AAGGTCTCAAGGCCTTGGCTTGGAACTGAC | -0.441
CATTAAAACAACCCAGAGAATGCTAGACAA | -1.11
TGGTGACCAGACTACCTCTTTAGGCTGGAC | -0.684
ACCTGCCCTGAGTCCAGCCTTCCTGTTCAA | -0.214
